{"source": "the supplement of paper PMC11417369", "note": "Some of the results follow.", "data": [{"tested_on": "PfAP2-HC AP2 domain (GST-tagged)", "experiment": "gcPBM binding intensity (ln(normalized median fluorescence intensity)); higher = stronger DNA binding", "summary_of_the_method": "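In this array assay, P. falciparum DNA-binding domains with a GST tag, expressed in E. coli, were applied for 1 h to primer-extended double-stranded 36-bp intergenic genomic probes and negative controls on an Agilent 4 × 180k array. Bound protein was visualised with Alexa488 anti-GST antibody at 488 nm. Binding intensity is the highest Masliner-normalised natural-log median intensity across replicate spots of either probe orientation.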", "values": [{"sequence": "CTAGCAAATACATACACACACACACCGATACAGATA [CACACA_site5853]", "gcPBM binding intensity (ln)": 10.4}, {"sequence": "ATATATACATATATTACACACTTCTTATTCTAAGAA [CACACA_site3022]", "gcPBM binding intensity (ln)": 9.69}, {"sequence": "TATTTCATGATACAATGTACATGTATATATGATACC [XGTACX_site5057]", "gcPBM binding intensity (ln)": 9.62}, {"sequence": "AATAATATATATTACACACGCATCGTTCATTTATTT [CACACA_site2391]", "gcPBM binding intensity (ln)": 10}, {"sequence": "TTGCCCATTTAATTAACACACAAATGTTTATATTCT [CACACA_site6488]", "gcPBM binding intensity (ln)": 10.1}, {"sequence": "TTTGAAATAAGCAAATGTACATTATTATTAAATATA [XGTACX_site6158]", "gcPBM binding intensity (ln)": 9.49}, {"sequence": "TTCACATACAGAAACACACACATATATATAAATTAA [CACACA_site3705]", "gcPBM binding intensity (ln)": 10.2}, {"sequence": "TGTATGATAACTATAGTGCATTTGGTAATTTTTCCA", "gcPBM binding intensity (ln)": 9.51}, {"sequence": "TAATTTTTTTTTCTTGTACACACTATTTTATAATTT [CACACA_site4078]", "gcPBM binding intensity (ln)": 9.99}, {"sequence": "ATCTATGATATATACACACACATGTATAAATAAATA [CACACA_site7012]", "gcPBM binding intensity (ln)": 10.3}, {"sequence": "AATAGTATTCACAAAGTTTTATATAATAAATATAAA [GTGCAC_negctrl_site154]", "gcPBM binding intensity (ln)": 9.62}, {"sequence": "CGTATTTATATAATTACACACCATATTTTAATTATT [CACACA_site5960]", "gcPBM binding intensity (ln)": 9.76}, {"sequence": "ATTTATTTGTTTGTTTTTTTTACGATTTTTATTTTT [CACACA_negctrl_site1138]", "gcPBM binding intensity (ln)": 9.79}, {"sequence": "ATAAACAATTAACAAACATGCAAATTTTAAATGTGT [TGCATGCA_site919]", "gcPBM binding intensity (ln)": 9.68}, {"sequence": "TTTTTTTTTTTTTTTTGTACATATTTTTAAACTATA [XGTACX_site2897]", "gcPBM binding intensity (ln)": 9.23}, {"sequence": "TTTTTTTTTTGATGTTGTACATATATATTATATATA [XGTACX_site6377]", "gcPBM binding intensity (ln)": 9.63}, {"sequence": "AGATATATGGACGACTCACACATTTAAATTCATTCA [CACACA_site6047]", "gcPBM binding intensity (ln)": 9.74}, {"sequence": "CTTTCATATGTTTTAACACACACGCATATATTATAT [CACACA_site8615]", "gcPBM binding intensity (ln)": 10.2}, {"sequence": "TTTTTTTTTTTGATTTGTACACAAAAAAAATATATG [XGTACX_site4547]", "gcPBM binding intensity (ln)": 9.42}, {"sequence": "CTTCTTATTTTCTAATGTACGTACAAATCATTTATA [XGTACX_site2176]", "gcPBM binding intensity (ln)": 9.74}, {"sequence": "ATATTTATATATATGTGTACATATAGAAACATAAAA [XGTACX_site4355]", "gcPBM binding intensity (ln)": 9.81}, {"sequence": "TAAACATACATATACACACACACACCCACACCCACA [CACACA_site492]", "gcPBM binding intensity (ln)": 11.6}, {"sequence": "AAAAACAAACTGTGCATGCACCAAAAAAAAAAAAAA", "gcPBM binding intensity (ln)": 9.62}, {"sequence": "TGTCCTTATGGGCACACACACATATAAGAAATTTAA [CACACA_site3187]", "gcPBM binding intensity (ln)": 10}, {"sequence": "TTTTTTTTTTTAATTTGTACGAATCTTTTTATTTTA [XGTACX_site4516]", "gcPBM binding intensity (ln)": 9.73}]}]}
